In EPA's CvTdb concentration-time database:
Further values from the same series stand in other lists.

Key:
[1] = system: Rat; test: concentration in brain after dosing; details: 5 min; dosed: 2-Methyltetrahydrofuran; 400 mg/kg; oral; Male; F344
[2] = system: Rat; test: concentration in brain after dosing; details: 0.25 h; dosed: 2-Methyltetrahydrofuran; 10 mg/kg; iv; Female; F344
[3] = system: Rat; test: concentration in brain after dosing; details: 0.75 h; dosed: 2-Methyltetrahydrofuran; 30 mg/kg; oral; Male; F344
[4] = system: Rat; test: concentration in brain after dosing; details: 1 h; dosed: 2-Methyltetrahydrofuran; 10 mg/kg; oral; Male; F344
[5] = system: Rat; test: concentration in brain after dosing; details: 8 h; dosed: 2-Methyltetrahydrofuran; 100 mg/kg; oral; Male; Harlan Sprague Dawley
[6] = system: Rat; test: concentration in brain after dosing; details: 3 h; dosed: 2-Methyltetrahydrofuran; 30 mg/kg; oral; Male; F344
[7] = system: Rat; test: concentration in plasma after dosing; details: 1 h; dosed: 2-Methyltetrahydrofuran; 10 mg/kg; iv; Female; F344
[8] = system: Rat; test: concentration in plasma after dosing; details: 0.75 h; dosed: 2-Methyltetrahydrofuran; 10 mg/kg; oral; Male; F344
[9] = system: Rat; test: concentration in plasma after dosing; details: 10 min; dosed: 2-Methyltetrahydrofuran; 10 mg/kg; oral; Male; F344
[10] = system: Rat; test: concentration in plasma after dosing; details: 2 h; dosed: 2-Methyltetrahydrofuran; 10 mg/kg; oral; Female; F344
[11] = system: Rat; test: concentration in plasma after dosing; details: 20 min; dosed: 2-Methyltetrahydrofuran; 30 mg/kg; oral; Female; F344
[12] = system: Rat; test: concentration in plasma after dosing; details: 10 min; dosed: 2-Methyltetrahydrofuran; 100 mg/kg; oral; Male; Harlan Sprague Dawley
[13] = system: Rat; test: concentration in plasma after dosing; details: 1 h; dosed: 2-Methyltetrahydrofuran; 10 mg/kg; oral; Female; F344
[14] = system: Rat; test: concentration in plasma after dosing; details: 1 h; dosed: 2-Methyltetrahydrofuran; 30 mg/kg; oral; Female; F344
[15] = system: Rat; test: concentration in plasma after dosing; details: 10 min; dosed: 2-Methyltetrahydrofuran; 10 mg/kg; iv; Male; F344
[16] = system: Rat; test: concentration in plasma after dosing; details: 8 min; dosed: 2-Methyltetrahydrofuran; 10 mg/kg; oral; Male; F344
[17] = system: Rat; test: concentration in plasma after dosing; details: 1.5 h; dosed: 2-Methyltetrahydrofuran; 30 mg/kg; oral; Female; F344
[18] = system: Rat; test: concentration in plasma after dosing; details: 0.5 h; dosed: 2-Methyltetrahydrofuran; 10 mg/kg; iv; Female; F344
[19] = system: Rat; test: concentration in plasma after dosing; details: dosed: Bromochloroacetic acid, 100 mg/kg, oral, Male, F344
[20] = system: Rat; test: concentration in plasma after dosing; details: dosed: Fluorotelomer alcohol 8+2, 40 mg/kg, oral, Female, Harlan Sprague Dawley
[21] = system: Rat; test: concentration in plasma after dosing; details: dosed: Formamide, 90 mg/kg, iv, Male, Harlan Sprague Dawley
[22] = system: Rat; test: concentration in plasma after dosing; details: dosed: Formamide, 300 mg/kg, oral, Female, Harlan Sprague Dawley
[23] = system: Rat; test: concentration in plasma after dosing; details: dosed: Formamide, 90 mg/kg, iv, Male, Harlan Sprague Dawley; remark: listed apart in the source
[24] = system: Rat; test: concentration in plasma after dosing; details: dosed: Formamide, 90 mg/kg, iv, Male, Harlan Sprague Dawley; remark: listed apart in the source
[25] = system: Rat; test: concentration in plasma after dosing; details: 2 h; dosed: Formamide; 36 mg/kg; oral; Female; Harlan Sprague Dawley
[26] = system: Rat; test: concentration in plasma after dosing; details: dosed: Formamide, 90 mg/kg, iv, Male, Harlan Sprague Dawley; remark: listed apart in the source
[27] = system: Rat; test: concentration in plasma after dosing; details: dosed: Formamide, 300 mg/kg, oral, Female, F344
[28] = system: Rat; test: concentration in plasma after dosing; details: dosed: Formamide, 36 mg/kg, oral, Male, Harlan Sprague Dawley
[29] = system: Rat; test: concentration in plasma after dosing; details: 5 h; dosed: Formamide; 30 mg/kg; iv; Female; F344
[30] = system: Rat; test: concentration in plasma after dosing; details: 2 h; dosed: Pyridine; 10 mg/kg; iv; Male; Harlan Sprague Dawley
[31] = system: Rat; test: concentration in plasma after dosing; details: 10 min; dosed: Pyridine; 50 mg/kg; oral; Male; Harlan Sprague Dawley
[32] = system: Rat; test: concentration in plasma after dosing; details: 6 h; dosed: Pyridine; 50 mg/kg; oral; Female; Harlan Sprague Dawley
[33] = system: Rat; test: concentration in plasma after dosing; details: dosed: Pyridine, 5 mg/kg, iv, Female, F344
[34] = system: Rat; test: concentration in plasma after dosing; details: 4 h; dosed: Pyridine; 10 mg/kg; oral; Male; Harlan Sprague Dawley
[35] = system: Rat; test: concentration in plasma after dosing; details: 2 h; dosed: Pyridine; 10 mg/kg; oral; Male; Harlan Sprague Dawley
[36] = system: Rat; test: concentration in plasma after dosing; details: 2 h; dosed: Pyridine; 200 mg/kg; oral; Female; Harlan Sprague Dawley
[37] = system: Rat; test: concentration in plasma after dosing; details: 2 h; dosed: Pyridine; 50 mg/kg; oral; Female; F344
[38] = system: Rat; test: concentration in plasma after dosing; details: 2 h; dosed: Pyridine; 10 mg/kg; oral; Male; Harlan Sprague Dawley; remark: listed apart in the source

**Q.** How did the concentration in brain [1] turn out when CC1CCCO1 (stereo not drawn) [2-Methyltetrahydrofuran] was run?
**A.** 135 µg/g

**Q.** And the concentration in brain [2]?
**A.** 4.45 µg/g

**Q.** What about the concentration in brain [3] of the same molecule?
**A.** 10.8 µg/g

**Q.** What about the concentration in brain [4] of the same molecule?
**A.** 1.17 µg/g

**Q.** And the concentration in brain [5]?
**A.** 0.0777 µg/g

**Q.** And the concentration in brain [6]?
**A.** 2.08 µg/g

**Q.** And the concentration in plasma [7]?
**A.** 1280 ng/mL

**Q.** What about the concentration in plasma [8] of the same molecule?
**A.** 1680 ng/mL

**Q.** And the concentration in plasma [9]?
**A.** 4650 ng/mL

**Q.** What about the concentration in plasma [10] of the same molecule?
**A.** 222 ng/mL

**Q.** And the concentration in plasma [11]?
**A.** 20100 ng/mL

**Q.** What about the concentration in plasma [12] of the same molecule?
**A.** 59100 ng/mL

**Q.** And the concentration in plasma [13]?
**A.** 1390 ng/mL

**Q.** What about the concentration in plasma [14] of the same molecule?
**A.** 16000 ng/mL

**Q.** And the concentration in plasma [15]?
**A.** 10400 ng/mL

**Q.** And the concentration in plasma [16]?
**A.** 3630 ng/mL

**Q.** And the concentration in plasma [17]?
**A.** 7100 ng/mL

**Q.** What about the concentration in plasma [18] of the same molecule?
**A.** 4130 ng/mL

**Q.** For O=C(O)C(Cl)Br (stereo not drawn) [Bromochloroacetic acid], which concentration in plasma ([19]; 10 min) is on record?
**A.** 3710 ng/mL

**Q.** And the concentration in plasma ([19]; 4.5 h)?
**A.** 3100 ng/mL

**Q.** What does the source list for OCCC(F)(F)C(F)(F)C(F)(F)C(F)(F)C(F)(F)C(F)(F)C(F)(F)C(F)(F)F [Fluorotelomer alcohol 8+2]?
**A.** concentration in plasma ([20]; 0.5 h): 566 ng/mL; concentration in plasma ([20]; 9 h): 76.9 ng/mL

**Q.** How did the concentration in plasma ([21]; 5 h) turn out when NC=O [Formamide] was run?
**A.** 105000 ng/mL

**Q.** And the concentration in plasma ([21]; 72 h)?
**A.** 2600 ng/mL

**Q.** What about the concentration in plasma ([22]; 10 min) of the same molecule?
**A.** 135000 ng/mL

**Q.** And the concentration in plasma ([22]; 20 h)?
**A.** 454000 ng/mL

**Q.** What about the concentration in plasma ([23]; 0.25 h) of the same molecule?
**A.** 115000 ng/mL

**Q.** And the concentration in plasma ([23]; 24 h)?
**A.** 22600 ng/mL

**Q.** What about the concentration in plasma ([24]; 2 h) of the same molecule?
**A.** 145000 ng/mL

**Q.** What about the concentration in plasma ([24]; 96 h) of the same molecule?
**A.** 2700 ng/mL

**Q.** And the concentration in plasma [25]?
**A.** 52800 ng/mL

**Q.** What about the concentration in plasma ([26]; 10 min) of the same molecule?
**A.** 146000 ng/mL

**Q.** And the concentration in plasma ([26]; 18 h)?
**A.** 43100 ng/mL

**Q.** And the concentration in plasma ([27]; 5 min)?
**A.** 48200 ng/mL

**Q.** What about the concentration in plasma ([27]; 2 h) of the same molecule?
**A.** 197000 ng/mL

**Q.** And the concentration in plasma ([28]; 0.25 h)?
**A.** 17300 ng/mL

**Q.** What about the concentration in plasma ([28]; 5 h) of the same molecule?
**A.** 44200 ng/mL

**Q.** What about the concentration in plasma [29] of the same molecule?
**A.** 28800 ng/mL

**Q.** For c1ccncc1 [Pyridine], which concentration in plasma [30] is on record?
**A.** 620 ng/mL

**Q.** What about the concentration in plasma [31] of the same molecule?
**A.** 35700 ng/mL

**Q.** And the concentration in plasma [32]?
**A.** 15200 ng/mL

**Q.** And the concentration in plasma ([33]; 0.05 h)?
**A.** 4810 ng/mL

**Q.** What about the concentration in plasma ([33]; 4 h) of the same molecule?
**A.** 2300 ng/mL

**Q.** What about the concentration in plasma [34] of the same molecule?
**A.** 234 ng/mL

**Q.** What about the concentration in plasma [35] of the same molecule?
**A.** 1770 ng/mL

**Q.** What about the concentration in plasma [36] of the same molecule?
**A.** 84000 ng/mL

**Q.** And the concentration in plasma [37]?
**A.** 16500 ng/mL

**Q.** What about the concentration in plasma [38] of the same molecule?
**A.** 1640 ng/mL
